In the supplement of paper PMC11417369:
The list shows a part of the results.

Tested on: PfSIP2 AP2 domain 1 (GST-tagged)
Experiment: gcPBM binding intensity (ln(normalized median fluorescence intensity)); higher = stronger DNA binding
Method in brief: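 The binding buffer was 1× PBS containing 1% milk, 0.2 mg/ml BSA, 0.5% salmon testes DNA and 0.03% Triton X-100. In it, GST-tagged P. falciparum DNA-binding domains expressed in E. coli were applied for 1 h to an Agilent 4 × 180k array of primer-extended double-stranded 36-bp intergenic genomic probes plus negative controls. Binding intensity, read with Alexa488 anti-GST antibody and a 488 nm scan, is the highest Masliner-normalised natural-log median intensity across replicate spots of either probe orientation.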

Sequence	gcPBM binding intensity (ln)
CTTAATATATGTGGCACACATGTGGAGTCCTATTAA [CACACA_site4281]	6.98
AAAAAAATATTAATGTGTACATAATAATAACATATA [XGTACX_site8319]	7.04
GCCAAAAGGATATGCACACACACACCCATATATATA [CACACA_site2198]	7.62
CAAGGAACCGGACACACACACATAAATGTATTTATA [CACACA_site4574]	6.78
CATTATCATGTTTTTTGTACTCATAATAAAAAGCAG [XGTACX_site2056]	7.35
ATTTACAAAAGGAAAGTGCAAACATGTGATTAAACA [CACACA_negctrl_site714]	7.97
TATATATAGAAACACACACACACCAAAGCGTAGCGC [CACACA_site62]	6.77
AATAATTGTTAAAGTTGTACTATACGTATATAAGAA [XGTACX_site1432]	7.04
AAAAATGAATTATTTTGTACATATATATATATATAT [XGTACX_site3410]	9.18
AACTTATTTAAATTCACACATATATAAAATACTTAT [CACACA_site4394]	7.25
ATCAATTTAATTTATTGTACTTGTTTGTTTTTTTAT [XGTACX_site7544]	6.94
GATAACATAATATGTTGTACATAAAAATTTTTATCA [XGTACX_site1969]	7.03
ATAAAGATATGACACACACACATATTATAGATATAT [CACACA_site7434]	7.08
ACATATGACTATAATACACACTTGTATTATTAATAT [CACACA_site6951]	6.88
ATTTTAATTACATATACACACAAAGGTTCATAACAA [CACACA_site9008]	7.14
TAATTTAAACAAAAAAGTACAAATTTCTTTTTATTA [XGTACX_site5244]	6.38
TACTCATAATATTGATAATTAAAAAGATAAACTATT [XGTACX_negctrl_site299]	6.9
ATTATTTTATTATAGTGTACTTTTTTAATCAAAGGA [XGTACX_site8921]	7.27
AATTTTATTACTTTTACACACCTATATATTATTCAT [CACACA_site3273]	7.04
TTTTAAAAAAAATATAAAAAAAGAGGAGGGATGGTA [GTGCAC_negctrl_site35]	7.25
TATGTTTTTACGTGTGTGCACTTTGTAGAGATAAGT	10.7
TACTATATAAGTAAGGCATGCATGCCGATTTTTTTA [TGCATGCA_site100]	6.57
TTCTTTAATACTTATTGTACAATATAATAATCACAA [XGTACX_site6364]	7.48

Sequence	gcPBM binding intensity (ln)
AAAAAAAAAAAAATATGTACTTATTTTTATGTTAAA [XGTACX_site8802]	7.3
TACTTAAAATATTTAACAAATAAATAAATAAATAAA [XGTACX_negctrl_site523]	7.08
TGAAACCGTTACATGTGTACATATGTTACACATAAT [XGTACX_site7250]	6.94
ATATTTTTATTTTCTTTACACACCACATAATTTTTT [CACACA_site4060]	7.09
ATTAGATATGTAAACTAAAATTATATTCATGATAAT [TGCATGCA_negctrl_site182]	7.02
TCTAACAACATGCGCACACACATGAATATTCATATT [CACACA_site1540]	8.67
TCACATCTTATATACTGTACATTTCGAATATAAATT [XGTACX_site2508]	7.04
TTTCTTTTACATATTTGTACATATATAAATTTATAT [XGTACX_site1787]	7.21
CATACATACCTATATACACACATATAAAATAATATA [CACACA_site7290]	7.27
AGTATACAGATATATACACACATATTTATATTTATA [CACACA_site6394]	6.83
GGCAACATTTGAAACACACACACATACAAACAAACA [CACACA_site3307]	7.57
TGTTATTATTTGTACACACACATATATATCCTTGTT [CACACA_site3616]	7.19
TCTATATGTTGATTCACACATAAAGAATAAATAAAA [CACACA_site6017]	6.83
AACACGCGCAGACACACACACACACCCACATATATA [CACACA_site2205]	7.32
TATAATATATTATATACACACATTATGAAATCCACA [CACACA_site1330]	7.18
TATATGAACTTATATACACACCATTTTTGTAAATCT [CACACA_site4547]	6.88
ATAAATATATTTTATAGTACATAAATATCAAAAAAA [XGTACX_site2334]	7.03
AAACAATACTGATATTGTACATAATAAAAAAAAATA [XGTACX_site3330]	6.87
ATTTTGATGCATGGGTTGCACTAACTTTTGCCCAGA	9.11
TTTTTTTTTTTTGATGCACACACCTGAACGAGTTAA [CACACA_site317]	7.86
TATTTTTATATATGACGTACTCTACAATTATTAATG [XGTACX_site5818]	7.32
AAAATATGTATGTAAAGTACTAATATACAAATTTTT [XGTACX_site5186]	6.73
ATATAAATATTCCACACACACACAAAAAAAAAAAAA [CACACA_site7678]	7.07

Sequence	gcPBM binding intensity (ln)
TTAATTATAAGAAAAAGTACTCATTACATTATAGAA [XGTACX_site678]	6.96
TAGTCGTTTTTTTAATGTACTCACGCATAATATAAT [XGTACX_site6499]	7.28
GTTCAAAATATGAACACACACATATAGATTTATATA [CACACA_site7054]	6.9
ATCATTTTTAAAGGAACACACAAAAAAAATTAGAAT [CACACA_site1370]	6.93
AAAGGATATAGACACACACACACATATATATATATA [CACACA_site2200]	9.61
TGAAAAGTAAAATACACACACATAATATAATTTATA [CACACA_site1989]	6.77
CATATACATCCACATACACACATACACCCATACACA [CACACA_site5038]	7.38
ATTATTTTTTTTGTTACACACATGACTTATTTTTAT [CACACA_site3228]	7.32
ATATTTTTTTTTTTATGTACTTATTTATAATTATTT [XGTACX_site5279]	7.19
AGCTTGTAACAGTTTACACACTAATATTTATAAATT [CACACA_site6024]	6.87
CTTATAAGAATACTAGTGCACATAATTTAACGAAAA	10.6
TACTTATTGTGATACTTATATTATTTTATGATTAAA [XGTACX_negctrl_site353]	6.93
TATATTTATTTATATACACACATAATAAAAAATATA [CACACA_site6527]	7.01
TATTAATGATAAAAAAGTACATTATTATATGATATT [XGTACX_site4235]	6.84
TTTTTTTTTTTTTTTTCACACATTGTACTTTTTTAT [CACACA_site5193]	7.41
TAAGTCATATAAATGTGTACATAAAAAAAAAAAATG [XGTACX_site1645]	7.05
ATCATTTGCATACGCACACACACATAAAAAGAAAAA [CACACA_site355]	7.54
TCTATCAAATTTGAAGGTACACATTTGAGATAATTA [XGTACX_site3797]	6.86
AATAATAAATAAATGTGTACTTAAAAATATTATATT [XGTACX_site3005]	7.15
TTGTATCATATATTATGTACATATTGATTTATTACC [XGTACX_site12]	7.24
CAAAGTATTATGATTACACACATGTGCTTTTTTCTT [CACACA_site163]	6.71
ATGTCCTATATTAGTACACACATGAAAATATAAATA [CACACA_site7497]	7.27
TCCTATGATGATGATAGTACATATGAGTTCAAAAAA [XGTACX_site273]	6.81

Sequence	gcPBM binding intensity (ln)
ACAATTAATCAAACAAGTACAAAATATATCCCTATT [XGTACX_site6223]	7.03
TTATTGTTATTTGTTTGTACATAATATAATATATTA [XGTACX_site6477]	7.03
AACCATACACAAATAAACATAGACACAGATACCTCC [CACACA_negctrl_site598]	6.95
AATATAAAAAAAAACAAAAAAAAAATTTTGGTTCAC [CACACA_negctrl_site1290]	6.83
AATATGTGTATAGATAGTACACATGCTGATAATATA [XGTACX_site5941]	7.04
AAAATTTTGGAACGTGCACACATATGTAATATATAT [CACACA_site9004]	9.92
TTTTTAAAATATTTAACACACAATTATAATGCATAA [CACACA_site3932]	7.23
AGTAGTCTGGAGAAATGTACACAGTATCTGGTAGCT [XGTACX_site4871]	6.85
TTATATTTATTTAATGAACACACGATATATTATTTT [CACACA_site1601]	6.88
AAAAAAATTAATAATGTGCACTTTTTAGTATTTTTA [GTGCAC_site9744]	10.3
AAATGTTAATTAAATGCATGTACAAAAGGAGCGAAT [TGCATGCA_site942]	7.99
TTGTAGATATTTATATGTACGAATTTATAAATATAG [XGTACX_site3611]	7.12
TTATTTATCAAAAAATGTACAAAAATATATAAACAA [XGTACX_site940]	7.26
TTTGTCAACCAAAATTGTACAAATGTATTCCCAATA [XGTACX_site1350]	6.75
ATACATATTAATATGTGTACACATTTTTATTTTTTT [XGTACX_site930]	6.99
AAAAAAAAAAAAAAAGGTACACAAAACGGTATTATT [XGTACX_site7064]	7.43
AACTCATAGGAGTGTGCACACAAAAAATTAAAAAAA [CACACA_site8996]	9.24
TTTTTTTTTTTTGTCACACATATGGAATATATCTAT [CACACA_site5899]	6.91
CTCAAAAAATATGAACGTACAAAATAAGTAATGACA [XGTACX_site590]	7.17
TTTTTTTTTTTTTTTGCACACATTTTAATTATTTTT [CACACA_site341]	7.04
